From PubChem BioAssay (NCATS)
Several values for one entry are separate records, joined by “and”; a condition that tells them apart may be missing. Equal entries are not always repeated. Some of the results follow. Further columns of the screen follow, without active or inactive calls. For some of these results: Compounds called inactive in the main read-out are mostly missing here. For some of these results: Potencies come from curve fits of mixed quality, noted in brackets.

Assays:
[1] = qHTS Assay for Lipid Storage Modulators (AID 1519); conditions: Drosophila S3 cells, BODIPY lipid droplet/cell ratio, laser cytometry, cells loaded with oleic acid
Outline: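 Cells seeded at 5,000 per well were treated with compounds over a concentration series and loaded with oleic acid (400 uM, as added). Lipid droplet fluorescence (488 nm excitation, 500-530 nm channel) was read by laser-scanning cytometry and normalized to 20 uM Triacsin C.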

[2] = qHTS Assay for Modulators of Human Peripheral Myelin Protein 22 (PMP22) Expression/Activity (AID 1967); conditions: Cell-based PMP22 reporter, dual-color luciferase ratio
Outline: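 Engineered MSC80 cells, Pmp22-promoter green and EF-alpha red luciferase reporters; 24h compound treatment at 37 °C. Concentration-response fits on green, red and ratio signals, each overlap-corrected, with %Activity normalized to untreated wells.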

[3] = qHTS Validation Assay to Find Inhibitors of Chronic Active B-Cell Receptor Signaling (AID 485345); conditions: ABC-DLBCL cells, chronic BCR signaling reporter
Outline: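 TMD8 ABC-DLBCL cells stably carrying doxycycline-inducible IkappaBalpha–green luciferase fusion plus unfused red luciferase; compounds 46 uM to 3 nM, 4 h at 37C with doxycycline. Corrected green/red luminescence ratio normalized to 10 uM MG-132 and basal cell wells; curves fitted.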

[4] = qHTS Validation Assay for Iinhibitors of HIV-1 Budding by Blocking the Interaction of PTAP/TSG101 (AID 485342); conditions: TSG101-PTAP binding, fluorescence polarization, 4-point titration; measured here: FITC channel readout
Outline: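 Compound wells held the Tsg101 binding domain (10 uM) and a FITC-conjugated PTAP peptide (50 nM) in buffer at pH 7.5 containing 0.15 M NaCl and 0.01% Tween 20; polarization was recorded after 20 min, r.t.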

[5] = qHTS assay for small molecule antagonists of peroxisome proliferator-activated receptor delta signaling (AID 588535); conditions: HEK293T PPARd-UAS-bla, beta-lactamase FRET ratio, 18 h; 460 nm channel;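 further: cells co-treated with a PPAR-delta agonist as stimulator during compound exposure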
Outline: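 Antagonist-mode beta-lactamase reporter (GeneBLAzer PPAR-delta-UAS-bla) in HEK293T cells, 2% charcoal/dextran FBS, 4000 cells/well. Compound titrations, 18 h at 37 C; CCF4 ratio read, IC50 and efficacy from Hill fits.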

[6] = qHTS assay for small molecule agonists of retinoid X receptor alpha signaling (AID 588544); conditions: HEK293T RXRa-UAS-bla, beta-lactamase reporter, 18 h; 530 nm emission
[7] = measured here: cell count channel max response
[8] = measured here: lipid channel max response
[9] = measured here: red reporter channel AC50, EF-alpha promoter control reporter in MSC80 mouse Schwann cells
[10] = measured here: CBR control luciferase (viability counter)
[11] = measured here: green reporter channel AC50, mouse Pmp22 promoter in mouse Schwann cells
[12] = measured here: CBG/CBR ratio read-out
Tags describe the fitted curve by direction and shape.

## C[C@]12CCC(=O)C=C1CC[C@@H]1[C@@H]2C(=O)C[C@@]2(C)[C@H]1CC[C@]2(O)C(=O)CO
[1]; [7]
  max response: 58.3%
[1]; [8]
  max response: 57.9%
[2]; [9]
  AC50: 30.1 µM [rising, single point]
[3]; [10]
  AC50: 8.2 µM [rising, partial curve]

## CCCCC#Cc1nc(N)c2ncn([C@@H]3O[C@H](C(=O)NCC)[C@@H](O)[C@H]3O)c2n1
[1]; [7]
  max response: -21.5%
[1]; [8]
  max response: -20.3%
[2]; [11]
  AC50: 84.9 µM [falling, single point]
[2]; [9]
  AC50: 84.9 µM [falling, single point]

## Cn1cc(C(F)(F)F)nc1-c1ccc(OCC(O)CNCCOc2ccc(O)c(C(N)=O)c2)cc1 (configuration not stated)
[1]; [7]
  max response: 48.8%
[1]; [8]
  max response: 54%
[2]; [11]
  AC50: 60.1 µM [falling, partial curve]
[2]; [9]
  AC50: 75.7 µM [falling, partial curve, poor fit]

## O=C(O)C1=CCNCC1
[1]; [7]
  max response: 43.4%
[1]; [8]
  max response: 35.2%
[4]
  AC50: 89.1 µM [rising, single point]

## NCCCCNS(=O)(=O)c1cccc2c(Cl)cccc12
[1]; [7]
  max response: 51.1%
[1]; [8]
  max response: 49.9%
[2]; [11]
  AC50: 21.3 µM [falling, full curve]
[2]; [9]
  AC50: 23.9 µM [falling, full curve]

## COC(=O)[C@H]1[C@H]2C[C@@H]3c4[nH]c5cc(OC)ccc5c4CCN3C[C@H]2C[C@@H](OC(=O)c2cc(OC)c(OC)c(OC)c2)[C@@H]1OC
[1]; [7]
  max response: 45.3%
[1]; [8]
  max response: 48.9%
[3]; [12]
  AC50: 8.2 µM [falling, partial curve]
[3]; [10]
  AC50: 0.164 µM [rising, full curve, poor fit]
[5]
  max response: 275% and 134%
[6]
  max response: 60% and 32.3%

## O=c1cc(O)cc(/C=C/c2ccc(O)c(O)c2)o1
[1]; [7]
  max response: 81.9%
[1]; [8]
  max response: 82.8%
[2]; [11]
  AC50: 2.69 µM [falling, full curve]
[2]; [9]
  AC50: 84.9 µM [falling, single point]
[4]
  AC50: 50.1 µM [rising, partial curve]
[3]; [12]
  AC50: 18.4 µM [falling, single point]
[3]; [10]
  AC50: 29.1 µM [falling, single point]

## CCCCC[C@H](CC(=O)NO)C(=O)N[C@H](C(=O)N1CCC[C@H]1CO)C(C)C
[1]; [7]
  max response: 46.7%
[1]; [8]
  max response: 47.2%
[2]; [11]
  AC50: 67.5 µM [falling, partial curve, poor fit]
[2]; [9]
  AC50: 84.9 µM [falling, single point]
[3]; [10]
  AC50: 23.1 µM [rising, single point]
